Here are results for six molecules from patent US20240350588A1 (SUNSHINE LAKE PHARMA, published 2024).

T1: human GFRAL (UniProtKB-Q6UXVO) (human, UniProt Q6UXV0 19-394)
T1 sequence (looked up): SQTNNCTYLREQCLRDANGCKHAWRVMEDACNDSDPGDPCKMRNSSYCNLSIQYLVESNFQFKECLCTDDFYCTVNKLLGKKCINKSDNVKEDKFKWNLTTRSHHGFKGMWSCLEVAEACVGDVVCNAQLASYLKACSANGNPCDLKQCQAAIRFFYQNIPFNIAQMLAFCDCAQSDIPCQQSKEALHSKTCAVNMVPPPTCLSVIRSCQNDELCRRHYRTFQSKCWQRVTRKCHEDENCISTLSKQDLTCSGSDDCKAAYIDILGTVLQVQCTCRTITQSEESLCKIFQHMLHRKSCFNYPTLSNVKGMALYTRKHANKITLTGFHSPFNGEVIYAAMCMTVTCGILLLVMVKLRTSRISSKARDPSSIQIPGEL

B1: Fc-GDF15 fusion protein M14 (Fc fusion)
chain: [sequence of human IgG4 Fc not given]GGGGSGGGGSAPAPAPAPAPAPAPAPAPAPGGGGSGGGGSDHCPLGPGRCCRLHTVRASLEDLGWADWVLSPREVQVTMCIGACPSQFRAANMHAQIKTSLHRLKPDTVPAPCCVPASYNPMVLIQKTDTGVSLQTYDDLLAKDCHCI
B2: Fc-GDF15 fusion protein M18 (Fc fusion)
chain: [sequence of human IgG4 Fc with K439E (EU numbers) not given]GGGGSGGGGSEPEPEPEPEPEPEPEPEPEPGGGGSGGGGSDHCPLGPGRCCRLHTVRASLEDLGWADWVLSPREVQVTMCIGACPSQFRAANMHAQIKTSLHRLKPDTVPAPCCVPASYNPMVLIQKTDTGVSLQTYDDLLAKDCHCI
B3: Fc-GDF15 fusion protein M17 (Fc fusion)
chain: [sequence of human IgG4 Fc with K439E (EU numbers) not given]GGGGAPAPAPAPAPAPAPAPAPAPGGGGGDHCPLGPGRCCRLHTVRASLEDLGWADWVLSPREVQVTMCIGACPSQFRAANMHAQIKTSLHRLKPDTVPAPCCVPASYNPMVLIQKTDTGVSLQTYDDLLAKDCHCI
B4: Fc-GDF15 fusion protein M1 (Fc fusion)
chain: [sequence of human IgG4 Fc with F234A L235A (EU numbers) not given]GGGGSGGGGSAPAPAPAPAPAPAPAPAPAPGGGGSGGGGSDHCPLGPGRCCRLHTVRASLEDLGWADWVLSPREVQVTMCIGACPSQFRAANMHAQIKTSLHRLKPDTVPAPCCVPASYNPMVLIQKTDTGVSLQTYDDLLAKDCHCI
B5: Fc-GDF15 fusion protein M12 (Fc fusion)
chain: [sequence of human IgG1 Fc with L234A L235A K439E (EU numbers) not given]GGGGSGGGGSAPAPAPAPAPAPAPAPAPAPGGGGSGGGGSDHCPLGPGRCCRLHTVRASLEDLGWADWVLSPREVQVTMCIGACPSQFRAANMHAQIKTSLHRLKPDTVPAPCCVPASYNPMVLIQKTDTGVSLQTYDDLLAKDCHCI
B6: Fc-GDF15 fusion protein M19 (Fc fusion)
chain: [sequence of human IgG4 Fc with K439E (EU numbers) not given]GGGGSGGGGSGGGGSGGGGSGGGGSGGGGSGGGGSGGGGSDHCPLGPGRCCRLHTVRASLEDLGWADWVLSPREVQVTMCIGACPSQFRAANMHAQIKTSLHRLKPDTVPAPCCVPASYNPMVLIQKTDTGVSLQTYDDLLAKDCHCI

This test concerns the target T1, human GFRAL (UniProtKB-Q6UXVO). As to the kind of experiment: cell-based or functional assay.
For the molecule B1, the “Relative activity ratio (native GDF15 EC50: Fc-GDF15 construct EC50), ERK1/2 phosphorylation HTRF in HEK293T cells expressing human GFRAL and RET” value came to 1.18 ratio. The same measure for B2: 1.69 ratio; for B3: 1.31 ratio; for B4: 2.66 ratio. The same measure for B5: 0.97 ratio; for B6: 1.19 ratio.
